Assay results: publication PMC7363125
Results are given in words; binding and its absence hold for the method and conditions named. Binding seen in cells or lysates may run through a third protein. Where a sequence is shown, tags or fusion partners need not be part of it.

Target: T1, GST-PDZD11 N-term 1-30 P16,21,22A (human) (UniProt Q5EBL8)
T1 sequence: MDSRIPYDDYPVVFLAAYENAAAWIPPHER
Assay: pull-down; GST-PDZD11 baits (full-length, truncated, 1-30, mutants; E. coli) on GSH-Sepharose beads, incubated 1 h at 4 °C with insect cell lysate holding full-length PLEKHA7-His; immunoblot with anti-His; only the target purified

- binding: no binding
B1: PLEKHA7-His, full-length (protein, UniProt Q6IQ23 1-1121)
chain: MAAATVGRDTLPEHWSYGVCRDGRVFFINDQLRCTTWLHPRTGEPVNSGHMIRSDLPRGWEEGFTEEGASYFIDHNQQTTAFRHPVTGQFSPENSEFILQEEPNPHMSKQDRNQRPSSMVSETSTAGTASTLEAKPGPKIIKSSSKVHSFGKRDQAIRRNPNVPVVVRGWLHKQDSSGMRLWKRRWFVLADYCLFYYKDSREEAVLGSIPLPSYVISPVAPEDRISRKYSFKAVHTGMRALIYNSSTAGSQAEQSGMRTYYFSADTQEDMNAWVRAMNQAAQVLSRSSLKRDMEKVERQAVPQANHTESCHECGRVGPGHTRDCPHRGHDDIVNFERQEQEGEQYRSQRDPLEGKRDRSKARSPYSPAEEDALFMDLPTGPRGQQAQPQRAEKNGMLPASYGPGEQNGTGGYQRAFPPRTNPEKHSQRKSNLAQVEHWARAQKGDSRSLPLDQTLPRQGPGQSLSFPENYQTLPKSTRHPSGGSSPPPRNLPSDYKYAQDRASHLKMSSEERRAHRDGTVWQLYEWQQRQQFRHGSPTAPICLGSPEFTDQGRSRSMLEVPRSISVPPSPSDIPPPGPPRVFPPRRPHTPAERVTVKPPDQRRSVDISLGDSPRRARGHAVKNSSHVDRRSMPSMGYMTHTVSAPSLHGKSADDTYLQLKKDLEYLDLKMTGRDLLKDRSLKPVKIAESDTDVKLSIFCEQDRVLQDLEDKIRALKENKDQLESVLEVLHRQMEQYRDQPQHLEKIAYQQKLLQEDLVHIRAELSRESTEMENAWNEYLKLENDVEQLKQTLQEQHRRAFFFQEKSQIQKDLWRIEDVTAGLSANKENFRILVESVKNPERKTVPLFPHPPVPSLSTSESKPPPQPSPPTSPVRTPLEVRLFPQLQTYVPYRPHPPQLRKVTSPLQSPTKAKPKVEDEAPPRPPLPELYSPEDQPPAVPPLPREATIIRHTSVRGLKRQSDERKRDRELGQCVNGDSRVELRSYVSEPELATLSGDMAQPSLGLVGPESRYQTLPGRGLSGSTSRLQQSSTIAPYVTLRRGLNAESSKATFPRPKSALERLYSGDHQRGKMSAEEQLERMKRHQKALVRERKRTLGQGERTGLPSSRYLSRPLPGDLGSVC
